Here are results for 13 molecules from PubChem BioAssay AID897 (National Center for Advancing Translational Sciences (NCATS), 2007).

This is one part of the list. The main result of the screen is listed elsewhere. These columns were measured beside it and carry no call. The list favours compounds with an active or inconclusive main result. Potencies come from curve fits of mixed quality, noted in brackets.

The target of the experiment is Caspase-7 (Homo sapiens) (UniProt P55210). The experiment can be described thus: Confirmation Concentration-Response Assay for Allosteric/Competitive Inhibitors of Caspase-7. The settings on record: recombinant caspase-7, fluorogenic substrate cleavage; measured here: rate read AC50. The source says: NIH Molecular Libraries Screening Centers Network [MLSCN]
UniProt P55210, sequence (P55210 whole entry, looked up): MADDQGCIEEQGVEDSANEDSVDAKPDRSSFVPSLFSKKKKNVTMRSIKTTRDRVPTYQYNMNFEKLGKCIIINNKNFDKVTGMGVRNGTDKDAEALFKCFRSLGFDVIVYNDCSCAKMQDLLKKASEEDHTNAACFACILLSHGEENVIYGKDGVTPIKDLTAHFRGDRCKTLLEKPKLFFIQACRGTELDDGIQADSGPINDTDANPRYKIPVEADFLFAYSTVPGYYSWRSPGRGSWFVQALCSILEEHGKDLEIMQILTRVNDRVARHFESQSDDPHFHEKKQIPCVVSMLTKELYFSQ
NIH Chemical Genomics Center [NCGC]
PI Name: Dr. James Wells,
Dr. Enrique Perez-Paya, Dr.Janice Williams, Dr. Dennis Wolan, a person
The caspases (Cysteine Aspartyl Protease) comprise a related family of 14 dimeric proteases that are critical mediators of apoptosis (programmed cell death) and inflammation. The caspases represent an important class of drug targets for stroke, ischemia, cancer and inflammatory diseases. […] One goal of this project was to identify compounds that act as allosteric inhibitors via stabilizing the procaspase form of the enzyme. Previous work in Well's laboratory has shown that such allosteric inhibitors can be identified and these act by binding at the dimer interface of enzyme (Hardy, Lam et al., 2004).
The biochemical assay was configured using purified caspase 7 at a high enzyme concentration to promote formation of the homodimers and thus facilitate the identification of allosteric inhibitors. The overall goal was to identify reversible inhibitors with better drug-like properties than the currently available set of aspartyl-containing peptidomimetics that covalently bind the active site. Caspase 7 was assayed using the profluorescent substrate Ac-DEVD-AFC. After initiation of the assay with substrate the plates were rapidly read using an automated robotic system (Kalypsys, Inc.) to maintain consistent timing. A kinetic mode of detection was used where the initial rate was collected (estimated final product formation was ~10%). Compounds were screened as a concentration-titration series that ranged from 57 uM to 0.7 nM. Below is the protocol used for caspase 7.
NCGC Assay Protocol Summary:
Caspase 7 was prepared in buffer (50 mM HEPES pH 7.5, 50 mM KCl, 200 mM NaCl, 10 mM DTT, 0.1% CHAPS) at a concentration of 66.6 nM and 3 uL was dispensed to all wells using black solid Kalypsys 1536-well plates. 20 nL of DMSO containing compounds was added using a pin-tool (Kalypsys Inc.) to columns 5-48. Then 20 nL of DMSO solution from a control plate was added to columns 1-4. Controls were: Column 1, 16 point titration with each concentration in duplicate (1:1 dilutions in DMSO; final starting concentration was 57 uM) of the caspase 7 inhibitor Ac-DEVD-CHO (Alexis Biochemicals); Column 2, a 16 point titration with each concentration in duplicate of the free AFC fluorophore prepared in DMSO (Alexis Biochemicals), final starting was 40 uM; Column 3 neutral (DMSO only) control; Column 4: DMSO alone, to serve as a negative control (no substrate was added). Then 1 uL of 20 uM the substrate Ac-DEVD-CHO (Alexis Biochemicals) prepared in the same buffer was dispensed to all wells except columns 2 and 4 and the plates were immediately transferred (< 1 min) to the Viewlux. The plates were then exposed using 405 nm excitation/520 nm emission filters for 4 sec and read at 20 sec intervals for 3 min. Final enzyme concentration was 50 nM and the final substrate concentration was 5 uM.
Concentration-response curves were fitted to the data calculated from slope of the linear regression of fluorescent intensity versus time (the rate). The concentration-effect curves were then classified based on curve quality (r2), response magnitude and degree of measured activity. […] Inconclusive compounds had appreciable concentration-dependent effects on both the measured rate and the interpolated basal fluorescence intensity at the start of the reaction but where the basal fluorescent intensity was marginal (e.g. < 10-fold). Inconclusive compounds also encompass highly fluorescent compounds (>100-fold increases in fluorescent intensities values relative to controls) where artificial concentration-dependent decreases in the rate occurred at high compound concentrations due to fluorescent interferences.
Keywords: Caspase 7, proteases, profluorescent, MLSMR, MLSCN, NIH Roadmap, qHTS, NCGC
By AC50 is commonly meant the concentration at which the activity in the assay is half-maximal. On to `Cc1cc(C)cc(C(=O)N(C)[C@H](Cc2ccc(-c3ccccc3)cc2)C(=O)N[C@@H](Cc2c[nH]c3ccccc23)C(=O)O)c1`, for which the AC50 is 15.8 µM [falling, full curve].
Consider `COc1ccc(Cn2c(=O)[nH]c3cc(C(=O)N4CCN(Cc5ccccc5)CC4)ccc3c2=O)cc1`, for which the AC50 is 15.8 µM [falling, full curve].
For the molecule `O=C1Cc2ccccc2C(=O)N1CCc1ccccc1`, the AC50 was 10 µM [falling, full curve].
Turning to `O=C1C(Cl)=C(NCCN2CCOCC2)C(=O)c2ncccc21`, the AC50 is 3.16 µM [falling, full curve].
With `CC1(C)C(=O)NC2=C1C(=O)C(=O)c1ccccc12` the figure was 10 µM [falling, full curve]; with `Cc1ccc(NC(=O)N2CCC(c3nc4c(nnn4Cc4cccc(Cl)c4)c(=O)[nH]3)CC2)cc1`, 12.6 µM [falling, full curve]; with `O=C(COC(=O)c1cc(-c2ccco2)nc2ccccc12)NCc1ccc2c(c1)OCO2`, 31.6 µM [falling, single point].
With `O=C(c1ccc(Cl)c(Cl)c1)N(Cc1ccco1)c1ccc(O)cc1` the figure was 12.6 µM [falling, full curve].
In the case of `COc1cc2c(cc1OC)CN(C(=O)CSc1nc3[nH]ncc3c(=O)n1-c1ccccc1)CC2`, the AC50 was 15.8 µM [falling, partial curve].
As for `COc1cc2c(C=O)c3c4c(cc(OC)c(OC)c4c2cc1OC)CCN3C`, the AC50 was 20 µM [falling, partial curve].
With `Cc1ccc(N2C(=O)[C@@H]3[C@H](C2=O)C2c4ccccc4C=CN2[C@@H]3C(=O)c2ccco2)c(C)c1` (stereo partly drawn) the figure was 31.6 µM [falling, partial curve]; with `N#CC1=C(N)Oc2cc(O)ccc2C1C1CCCCC1` (stereo not drawn), 25.1 µM [falling, partial curve]; with `CCCCCCC(=O)N1CCC(c2nc3c(nnn3Cc3ccccc3Cl)c(=O)[nH]2)CC1`, 3.98 µM [falling, full curve].
